{
  "source": "PubChem BioAssay AID1508642",
  "about": "(National Center for Advancing Translational Sciences (NCATS), 2021)",
  "note": "The whole screen tested about 43,000 compounds, of which about 200 (0.47%) were called active. Not shown: some 12% with an inconclusive outcome. Calls follow the shape of the dose curve; as a rule, active = well fitted cell-killing curve with a large enough effect; inconclusive = small, poorly fitted or top-dose-only effect, or effect the other way; inactive = flat fitted curve, though single readings scatter. This is one part of the list. % is scaled to controls: 0 for no effect and ±100 for the full control effect.",
  "data": [
    {"test": "Cell viability qHTS assay in S16 Pmp22-F2sN cells; also: nearly all actives have a fitted effect of over 65% in size", "details": "S16 Pmp22-F2sN Schwann cells (luciferase reporters placed in the Pmp22 gene) viability, CellTiter-Glo, 24 h; series mostly up to 57.5 µM; activity change, negative = cytotoxicity: at the top concentration", "how_it_was_run": "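S16 Schwann cells carrying the Pmp22-F2sN reporter, seeded in 1536-well format, were exposed to library compounds for 24 h at 37C. Viability was read as CellTiter-Glo luminescence after 15 min at room temperature.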", "values": [
      {"smiles": "Cc1ccc2[nH]c(CSc3nnc(NC(=O)COc4ccc(F)cc4)s3)cc(=O)c2c1", "activity change, negative = cytotoxicity": "inactive: 0.821%"},
      {"smiles": "COc1ccc(C2CC(=O)N(CC(=O)Nc3ccc(C(C)=O)cc3)c3ccccc3S2)cc1OC", "note": "(stereo not drawn)", "activity change, negative = cytotoxicity": "inactive: -0.387%"},
      {"smiles": "CCOC(=O)c1c(C)oc2nc(C)nc(N3CCN(c4cccc(C(F)(F)F)c4)CC3)c12", "activity change, negative = cytotoxicity": "inactive: 4.62%"},
      {"smiles": "CCCN(CCC)CCNC(=O)c1nn(C)c2c1CS(=O)(=O)c1ccccc1-2", "activity change, negative = cytotoxicity": "inactive: -2.8%"},
      {"smiles": "CCOC(=O)c1c(NC(=O)/C=C/c2ccc(Cl)cc2)sc2c1CCC(C)C2", "note": "(stereo not drawn)", "activity change, negative = cytotoxicity": "inactive: -10.9%"},
      {"smiles": "COc1ccc(CCC(=O)NC2CC(=O)N(c3ccccc3)C2)cc1", "note": "(stereo not drawn)", "activity change, negative = cytotoxicity": "inactive: 8.8%"},
      {"smiles": "O=C(CCCCn1c(=O)c2ccccc2n(Cc2cccc(Cl)c2)c1=O)NCc1ccc2c(c1)OCO2", "activity change, negative = cytotoxicity": "inactive: 19.3%"},
      {"smiles": "COc1ccc(CNC(=O)c2cc(-c3ccc(Cl)cc3)n[nH]2)cc1", "activity change, negative = cytotoxicity": "inactive: -3.47%"},
      {"smiles": "O=C(NCc1nc(-c2ccccc2)no1)c1ccco1", "activity change, negative = cytotoxicity": "inactive: 4.41%"},
      {"smiles": "COc1cc(Cl)c(C)cc1NC(=O)c1nn(C)c2c1CSc1ccccc1-2", "activity change, negative = cytotoxicity": "inactive: 16.6%"},
      {"smiles": "Cc1cc(=O)n2[nH]c(NC(=O)c3cccc(Cl)c3)nc2n1", "activity change, negative = cytotoxicity": "inactive: 7.79%"},
      {"smiles": "COc1ccc(CNC(=O)Cn2ncc3c(=O)oc4ccc(C)cc4c32)c(OC)c1", "activity change, negative = cytotoxicity": "inactive: 5.36%"},
      {"smiles": "COc1ccc(-c2nc(CN3CCC(C(=O)NCc4ccc(F)cc4)CC3)c(C)o2)cc1OC", "activity change, negative = cytotoxicity": "inactive: 5.18%"},
      {"smiles": "CCCC(=O)Nc1nnc(SCc2cc(=O)n3cccc(C)c3n2)s1", "activity change, negative = cytotoxicity": "inactive: -8.73%"},
      {"smiles": "CC1=Nc2cc(C(=O)N3CCCCC3)ccc2Sc2ccc(C)cc21", "activity change, negative = cytotoxicity": "inactive: 12.9%"},
      {"smiles": "Cc1c(C(=O)NCc2ccc(OC(C)C)cc2)sc2ncnc(N(C)C3CCCCC3)c12", "activity change, negative = cytotoxicity": "inactive: 3.87%"},
      {"smiles": "COc1ccccc1CCNC(=O)CCCn1c(=O)c2cccn2c2cccnc21", "activity change, negative = cytotoxicity": "inactive: 18.6%"},
      {"smiles": "CCOC(=O)c1ccc(Nc2nc3ccccc3n3c(C)nnc23)cc1", "activity change, negative = cytotoxicity": "inactive: -2.55%"},
      {"smiles": "CCN1CCN(CCCNC(=O)c2cnn(-c3ccc(OC)cc3)c2C2CCN(C(=O)OC(C)(C)C)CC2)CC1", "activity change, negative = cytotoxicity": "inactive: -3.18%"},
      {"smiles": "COC(=O)c1ccc(C(=O)OC)c(NC(=O)c2cnn3c(C(F)F)cc(-c4ccc(C)cc4)nc23)c1", "activity change, negative = cytotoxicity": "inactive: 4.08%"},
      {"smiles": "O=C(Cn1c(-c2cccs2)cc2cc(F)ccc21)N1CCCCC1", "activity change, negative = cytotoxicity": "inactive: -6.17%"},
      {"smiles": "Cc1cccc(N2CCN(c3ncnc4c3cnn4-c3ccc(Cl)cc3)CC2C)c1", "note": "(stereo not drawn)", "activity change, negative = cytotoxicity": "inactive: 15.2%"},
      {"smiles": "COC(=O)c1scc(-c2ccc(C)cc2)c1S(=O)(=O)N1CCN(c2ccccc2F)CC1", "activity change, negative = cytotoxicity": "inactive: -8.9%"},
      {"smiles": "COc1cccc(C(=O)Nc2c3c(nn2-c2ccc(C)cc2C)CS(=O)(=O)C3)c1OC", "activity change, negative = cytotoxicity": "inactive: -3.55%"},
      {"smiles": "CCOCCc1nn2c(=O)cc(COC(=O)c3ccccc3NC(=O)CC(C)C)nc2s1", "activity change, negative = cytotoxicity": "inactive: -1.65%"},
      {"smiles": "COc1ccc(N(C)S(=O)(=O)c2ccc3c(c2)n(C)c(=O)c(=O)n3C)cc1", "activity change, negative = cytotoxicity": "inactive: 0.151%"},
      {"smiles": "CCOc1ccc(-c2noc(CSc3nnc(Cc4ccccc4)n3-c3ccc(F)cc3)n2)cc1", "activity change, negative = cytotoxicity": "inactive: -8.78%"},
      {"smiles": "CCC(=O)Nc1ccccc1C(=O)OCc1cc(=O)n2cc(C)sc2n1", "activity change, negative = cytotoxicity": "inactive: 2.78%"},
      {"smiles": "COc1ccc(OC)c(NC(=O)Cn2c(CCC(=O)O)ccc2-c2ccccc2)c1", "activity change, negative = cytotoxicity": "inactive: 9.8%"},
      {"smiles": "CC(C)CCN1C(=O)c2ccccc2CC1(C)C(=O)NC1CCCCC1", "note": "(stereo not drawn)", "activity change, negative = cytotoxicity": "inactive: 5.22%"},
      {"smiles": "Cc1cccc(N(C)C(=O)c2cc3c(=O)oc4ccc(C)cc4c3s2)c1", "activity change, negative = cytotoxicity": "inactive: 4.9%"},
      {"smiles": "O=C(Nc1c(C(=O)N2CCN(c3ccccc3)CC2)oc2ccccc12)c1ccccc1F", "activity change, negative = cytotoxicity": "inactive: 9.84%"},
      {"smiles": "CCOc1ccc(-n2nc3ccc(NC(=O)c4ccc(C)cc4C)cc3n2)cc1", "activity change, negative = cytotoxicity": "inactive: 7.99%"},
      {"smiles": "Cc1ccc(CCNC(=O)c2cc3cc(S(=O)(=O)N4CCCCC4)ccc3n2C)cc1", "activity change, negative = cytotoxicity": "inactive: -0.84%"},
      {"smiles": "CC1CC(=O)N(CC(=O)Nc2ccc(OC(F)(F)F)cc2)c2ccccc2S1", "note": "(stereo not drawn)", "activity change, negative = cytotoxicity": "inactive: 2.68%"},
      {"smiles": "CCCN1CCN(C(=O)Cn2ncc3c4ccccc4n(Cc4cccc(Cl)c4)c3c2=O)CC1", "activity change, negative = cytotoxicity": "inactive: -4.43%"},
      {"smiles": "Cc1cc(OCC(=O)Nc2nc3c(s2)CCCC3)cc(C)c1Cl", "activity change, negative = cytotoxicity": "inactive: 3.32%"},
      {"smiles": "CCOC(=O)c1ccccc1NC(=O)COc1cc(=O)n(CC)c2ccccc12", "activity change, negative = cytotoxicity": "inactive: 11.7%"},
      {"smiles": "Cc1ccccc1C(=O)n1nc(-c2cccnc2)nc1NCc1ccc(F)cc1", "activity change, negative = cytotoxicity": "inactive: -1.98%"},
      {"smiles": "CCN(CCCNC(=O)Cn1ncc2c3ccccc3n(C)c2c1=O)c1cccc(C)c1", "activity change, negative = cytotoxicity": "inactive: 24.6%"},
      {"smiles": "COc1cc(OC)c(NC(=O)Cn2cnc3c(nc4n3CCCCC4)c2=O)cc1Cl", "activity change, negative = cytotoxicity": "inactive: 2.49%"},
      {"smiles": "O=C(CN1CCN(C2CCCCC2)C(=O)C1=O)Nc1ccc(Cl)cc1", "activity change, negative = cytotoxicity": "inactive: 1.35%"},
      {"smiles": "COc1ccc(NC(=O)CC(C)S(=O)(=O)c2ccc3c(c2)NC(=O)CO3)cc1OC", "note": "(stereo not drawn)", "activity change, negative = cytotoxicity": "inactive: 5.68%"},
      {"smiles": "Cc1cccc(C)c1NC(=O)Cn1c(=O)cc(C)c2c(C)nn(-c3cccc(Cl)c3C)c21", "activity change, negative = cytotoxicity": "inactive: -10.3%"},
      {"smiles": "COc1ccc(Cl)cc1NC(=O)c1sc2nc3c(cc2c1N)CN(C)CC3", "activity change, negative = cytotoxicity": "inactive: 19.1%"},
      {"smiles": "CCOc1ccccc1NC(=O)Cn1c(=O)n(Cc2ccccc2)c(=O)c2c3c(sc21)CN(C(C)=O)CC3", "activity change, negative = cytotoxicity": "inactive: 14.3%"},
      {"smiles": "O=C1CCCc2[nH]c(=O)c(-c3nc(-c4cccc([N+](=O)[O-])c4)cs3)cc21", "activity change, negative = cytotoxicity": "inactive: -17.2%"},
      {"smiles": "COc1ccc(-c2nc(CNC(=O)NC3CCCCC3)c(C)o2)c(OC)c1", "activity change, negative = cytotoxicity": "inactive: 7.53%"}
    ]}
  ]
}
